Experimental data from PubChem BioAssay (NCI).
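Interpolation was linear, between the two tested concentrations surrounding the appropriate level; five concentrations were tested over 48 hours in 96-well plates. The concentration for 50% growth inhibition is given as GI50. TGI: concentration producing complete growth inhibition.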 Peptide text beside a SMILES is read from it. * marks the point of attachment. Boc = CC(C)(C)OC(=O)*; Bn = c1ccc(C*)cc1

Test system: NCI-H322M lung
Assay: NCI tumour cell line growth inhibition, 48 h

Structure (SMILES): CCOc1ccc(NC(=O)c2cc3ccccc3cc2O)cc1
- GI50: > 100 µM
- TGI: > 100 µM

Structure (SMILES): Brc1ccc(N=Nc2ccc3ccccc3n2)cc1
- TGI: 58.6 µM

Structure (SMILES): O=C(c1ccccc1)c1ccc(O)c2ncccc12
- GI50: 2.57 µM
- TGI: 24.8 µM

Structure (SMILES): CCN(CC)c1ccc2cc(-c3csc(C)n3)c(=O)oc2c1
- TGI: > 100 µM

Structure (SMILES): Cc1ccc(/C=C2\CCCCCC2=O)cc1
- TGI: > 100 µM

Structure (SMILES): Cc1cccc(C)c1NC(=O)CCCC(=O)C(C#N)c1ccc(Cl)cc1 (centres undefined)
- TGI: > 100 µM

Structure (SMILES): COc1cc(/C=C2\C(=O)N(c3ccc(NC(C)=O)cc3)C(c3ccccc3)S2(=O)=O)cc(OC)c1OC (centres undefined)
- TGI: > 100 µM

Structure (SMILES): O=S(=O)([O-])[O-].[Fe+2].[OH2+]c1c(Cl)cc(Cl)cc1/C=N/Nc1ccccn1
- TGI: 4.27 µM

Structure (SMILES): CC(C)=CC[C@H]1C[C@@]2(CC=C(C)C)C(=O)/C(=C(/O)c3ccccc3)C(=O)[C@](CC=C(C)C)(C2=O)C1(C)C
- TGI: 20.6 µM

Structure (SMILES): Cc1ccc(S(=O)(=O)N[C@@H](Cc2ccccc2)C(=O)CCl)cc1
- GI50: 20 µM
- TGI: 38.3 µM

Structure (SMILES): CC(=O)c1c(C)cc2cccc(OC3OC(CO)C(O)C(O)C3O)c2c1O (centres undefined) (tested in a mixture with another compound)
- TGI: > 100 µM

Structure (SMILES): Oc1cc2c(cc1C(c1ccc3c(c1)OCO3)N1CCN(C(c3ccc4c(c3)OCO4)c3cc4c(cc3O)OCO4)CC1)OCO2 (centres undefined)
- TGI: 57 µM

Structure (SMILES): O=C1[C@@H]2C(c3ccncc3)=NO[C@@H]2C(=O)N1c1ccc(Cc2ccc(N3C(=O)[C@H]4C(c5ccncc5)=NO[C@H]4C3=O)cc2)cc1
- TGI: > 100 µM

Structure (SMILES): O=C1C(CO)=C[C@@H](O)[C@H]2O[C@@H]12
- TGI: > 100 µM

Structure (SMILES): COC(=O)[C@@H]1[C@H](O)[C@H](C)[C@H](O)[C@H](C)/C=C\C=C(C)C(=O)Nc2c(C)c(OC(C)=O)c3c(c2O)C(=O)C(C)=C2OCOC(=C23)C(C)=C[C@@](C)(O)[C@H](O)[C@@H](C)[C@H]1OC(C)=O
- TGI: > 100 µM

Structure (SMILES): CCOC(=O)C(C)c1nc2cc(C(F)(F)F)ccc2[nH]c1=O (centres undefined)
- TGI: > 100 µM

Structure (SMILES): CC1=NN(C(=O)CC(=O)Nc2ccc(Cl)cc2)C(=O)C1N=Nc1ccc(S(=O)(=O)c2ccc(N=NC3C(=O)N(C(=O)CC(=O)Nc4ccc(Cl)cc4)N=C3C)cc2)cc1 (centres undefined)
- TGI: > 100 µM

Structure (SMILES): CC[C@H]1C=CCC[C@@]2(C[C@@H]3CC[C@H]4[C@@H](C(=O)OCCCCCCCCCCCCCCCC(=O)N(CCCNC(C)=O)C[C@H](CCNC(C)=O)OC(C)=O)[C@@]5(CCC[C@@H](C)O5)NC(=[N+]34)N2)O1
- TGI: 3.08 µM

Structure (SMILES): COC(=O)C(CC(C)C)NC(=O)CNC(=O)C(Cc1ccc(OCc2ccccc2)cc1)NC(=O)C(COCc1ccccc1)NC(=O)OC(C)(C)C (centres undefined) (Boc-S(Bn)Y(Bn)GL-OMe; configuration not given here)
- TGI: > 100 µM

Structure (SMILES): CC(C)(C)OC(=O)NC(Cc1ccc(OCc2ccccc2)cn1)C(=O)O (centres undefined)
- TGI: > 100 µM

Structure (SMILES): C=C1[C@@H](O)C[C@H]2C(C)(C)C[C@H](Cl)C[C@]2(C)[C@H]1C[C@H](O)[C@H]1CC(=O)NC1=O
- GI50: < 0.01 µM
- TGI: 0.199 µM

Structure (SMILES): C=C1C(=O)OC2/C=C(\C)CC/C=C(\C)CC(OC(=O)/C(=C/CO)CO)[C@@H]12 (some centres undefined)
- TGI: 42 µM

Structure (SMILES): CC(=O)OC1CC2(O)C(CCC3(C)C(c4ccc(=O)oc4)CCC32O)C2(C)CCC(OC3OC(CO)C(O)C(O)C3O)C=C12 (centres undefined)
- GI50: 0.0275 µM
- TGI: 0.0951 µM

Structure (SMILES): COC(=O)/C(C#N)=C(/NCc1ccccc1)Nc1ccccc1
- TGI: > 100 µM

Structure (SMILES): Cc1ccccc1C1CC(=O)CC(c2ccccc2C)C12C(=O)NC(=S)NC2=O (centres undefined)
- TGI: > 100 µM

Structure (SMILES): CC(C)(C)Cc1cc(O)ccc1O
- TGI: > 100 µM

Structure (SMILES): N=C1N=C(N)S/C1=C\c1ccc2ncccc2c1
- GI50: > 25 µM
- TGI: > 25 µM

Structure (SMILES): CN(N=O)C(=O)Nc1ccc(C(=O)O)cc1
- TGI: > 100 µM

Structure (SMILES): COC(=O)/C=C1/OC(c2ccc(C)cc2C)=CC1=O
- TGI: 35.3 µM

Structure (SMILES): Cn1c(-c2cccs2)cc(-c2ccsc2)c1-c1cccs1
- TGI: > 100 µM

Structure (SMILES): COC(=O)c1ccc(NC(N)=NCC(C)(C)COc2ccc(C(F)(F)F)cc2)nc1
- GI50: 1.64 µM
- TGI: 3.09 µM

Structure (SMILES): C=C(CN(C)Cc1ccccc1)c1ccc(C(=O)Nc2ccccc2N)cc1
- GI50: 5.05 µM
- TGI: 24.2 µM

Structure (SMILES): N#CCN1CCN(CC#N)CCN(CC#N)CCN(CC#N)CC1
- TGI: > 100 µM

Structure (SMILES): COc1ccc(C2CC(c3cccc(OC)c3)=NN2C(=O)c2cc(OC)c(OC)c(OC)c2)cc1 (centres undefined)
- GI50: > 20.4 µM
- TGI: > 100 µM

Structure (SMILES): Cc1cccc(/C=C2/C(=O)Nc3ccccc32)n1
- TGI: 27.4 µM

Structure (SMILES): Cc1ncc([N+](=O)[O-])n1CCNC(=O)Cn1ccnc1[N+](=O)[O-]
- TGI: > 100 µM

Structure (SMILES): NC(=NCCO)c1ccc(N2CCCN(c3ccc(C(N)=NCCO)cc3)CC2)cc1
- GI50: > 100 µM
- TGI: > 100 µM

Structure (SMILES): COc1ccc(C(=O)C/C(=N/NC(N)=S)C(=O)Nc2ccccc2)cc1
- TGI: > 100 µM

Structure (SMILES): COC(=O)/C=C/C(=O)Nc1cc(Cl)c(Cl)cc1CC(=O)N(C)[C@H]1CCCC[C@@H]1N1CCCC1
- TGI: 30.7 µM

Structure (SMILES): Cc1cccc2cc3cccc(C(=O)NCCN(C)C)c3nc12
- TGI: 3.65 µM

Structure (SMILES): CCNC1=C(NC(=O)c2ccc(OC)cc2)C(=O)c2ccccc2C1=O
- TGI: > 100 µM

Structure (SMILES): Nc1ncc(N)c(NCC2(CO)CC(CCc3ccccc3)C2)n1 (centres undefined)
- TGI: 28.9 µM

Structure (SMILES): Oc1ccc2ccccc2c1NCn1nc(CCCCCCCCc2nn(CNc3c(O)ccc4ccccc34)c(=S)o2)oc1=S
- TGI: > 100 µM

Structure (SMILES): O=C(Nc1cc(C(F)(F)F)cc(C(F)(F)F)c1)Nc1ccc(OCc2nnc(-c3ccc(Cl)cc3)o2)c(F)c1
- GI50: 3.52 µM
- TGI: 29.8 µM

Structure (SMILES): NC1=NCC(c2ccccn2)C1c1ccc(F)cc1 (centres undefined)
- TGI: > 100 µM

Structure (SMILES): COc1cc(/C=C2\CC(C)C/C(=C\c3ccc(O)c(OC)c3)C2=O)ccc1O (centres undefined)
- TGI: 18.2 µM

Structure (SMILES): CC(C)N(C(=O)C12C3(C(=O)C(C)(C)C)C4C5(C#N)C3C1(C(=O)C(C)(C)C)C5C42C(=O)C(C)(C)C)C(C)C (centres undefined)
- TGI: > 100 µM

Structure (SMILES): Cc1c(-c2ccccc2)c(C#N)c2nnn(C)c(=O)n12
- TGI: > 100 µM
